Assay results from the supplement of paper PMC8728848.
The list shows a part of the results.

How the values were obtained:
Assay in all cases: glycan array binding signal (z-score within array); higher = stronger binding
Conditions in all cases: glycan notation: IUPAC condensed, linker removed
[1] = target: GlcA(b1-6)Gal
In short: (§1)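 Negative Z-scores can be read as non-binding. The Z-score is calculated within each array and then averaged across arrays of one protein sequence at different concentrations or buffers and across linkers. Arrays, 3228 in all, were curated from the Consortium for Functional Glycomics database and kept only where the protein sequence was available.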

[2] = target: GlcA3S(b1-3)Gal(b1-4)GlcNAc(b1-2)Man
In short: as §1

[3] = target: GlcA3S(b1-3)Gal(b1-4)GlcNAc(b1-3)Gal(b1-4)Glc
In short: as §1

[4] = target: GlcNAc(a1-3)Gal(b1-4)GlcNAc
In short: as §1

[5] = target: GlcNAc(a1-4)Gal(b1-3)GlcNAc
In short: as §1

[6] = target: GlcNAc(a1-4)Gal(b1-4)GalNAc
In short: as §1

[7] = target: GlcNAc(a1-4)Gal(b1-4)GlcNAc
In short: as §1

[8] = target: GlcNAc(a1-4)Gal(b1-4)GlcNAc(b1-3)Gal(b1-4)Glc
In short: as §1

[9] = target: GlcNAc(a1-4)Gal(b1-4)GlcNAc(b1-3)Gal(b1-4)GlcNAc
In short: as §1

[10] = target: GlcNAc(a1-4)Gal(b1-4)GlcNAc(b1-3)Gal(b1-4)GlcNAc(b1-3)Gal(b1-4)GlcNAc
In short: as §1

[11] = target: GlcNAc(a1-4)Gal(b1-4)GlcNAc(b1-3)Gal(b1-4)[Fuc(a1-3)]GlcNAc(b1-3)Gal(b1-4)[Fuc(a1-3)]GlcNAc
In short: as §1

[12] = target: GlcNAc(a1-6)Gal(b1-4)GlcNAc
In short: as §1

[13] = target: GlcNAc(b1-2)Gal(b1-3)GalNAc
In short: as §1

[14] = target: GlcNAc(b1-2)Man(a1-3)[GlcNAc(b1-2)Man(a1-6)]Man(b1-4)GlcNAc(b1-4)GlcNAc
In short: as §1

[15] = target: GlcNAc(b1-2)Man(a1-3)[GlcNAc(b1-2)Man(a1-6)]Man(b1-4)GlcNAc(b1-4)[Fuc(a1-6)]GlcNAc
In short: as §1

[16] = target: GlcNAc(b1-2)Man(a1-3)[GlcNAc(b1-4)][GlcNAc(b1-2)Man(a1-6)]Man(b1-4)GlcNAc(b1-4)GlcNAc
In short: as §1

[17] = target: GlcNAc(b1-2)Man(a1-3)[GlcNAc(b1-4)][GlcNAc(b1-2)Man(a1-6)]Man(b1-4)GlcNAc(b1-4)[Fuc(a1-6)]GlcNAc
In short: as §1

[18] = target: GlcNAc(b1-2)[GlcNAc(b1-4)]Man(a1-3)[GlcNAc(b1-2)Man(a1-6)]Man(b1-4)GlcNAc(b1-4)GlcNAc
In short: as §1

[19] = target: GlcNAc(b1-2)[GlcNAc(b1-4)]Man(a1-3)[GlcNAc(b1-4)][GlcNAc(b1-2)Man(a1-6)]Man(b1-4)GlcNAc(b1-4)GlcNAc
In short: as §1

[20] = target: GlcNAc(b1-2)[GlcNAc(b1-4)]Man(a1-3)[GlcNAc(b1-4)][GlcNAc(b1-2)[GlcNAc(b1-6)]Man(a1-6)]Man(b1-4)GlcNAc(b1-4)GlcNAc
In short: as §1

[21] = target: GlcNAc(b1-2)[GlcNAc(b1-4)]Man(a1-3)[GlcNAc(b1-4)][GlcNAc(b1-2)[GlcNAc(b1-6)]Man(a1-6)]Man(b1-4)GlcNAc(b1-4)[Fuc(a1-6)]GlcNAc
In short: as §1

[22] = target: GlcNAc(b1-2)[GlcNAc(b1-6)]Man(a1-6)[GlcNAc(b1-2)Man(a1-3)]Man(b1-4)GlcNAc(b1-4)GlcNAc
In short: as §1

[23] = target: GlcNAc(b1-2)[GlcNAc(b1-6)]Man(a1-6)[GlcNAc(b1-2)Man(a1-3)]Man(b1-4)GlcNAc(b1-4)[Fuc(a1-6)]GlcNAc
In short: as §1

[24] = target: GlcNAc(b1-2)[GlcNAc(b1-6)]Man(a1-6)[GlcNAc(b1-2)Man(a1-3)][GlcNAc(b1-4)]Man(b1-4)GlcNAc(b1-4)GlcNAc
In short: as §1

[25] = target: GlcNAc(b1-2)[GlcNAc(b1-6)]Man(a1-6)[GlcNAc(b1-4)][GlcNAc(b1-2)Man(a1-3)]Man(b1-4)GlcNAc(b1-4)GlcNAc
In short: as §1

[26] = target: GlcNAc(b1-3)Fuc
In short: as §1

[27] = target: GlcNAc(b1-3)Gal
In short: as §1

[28] = target: GlcNAc(b1-3)Gal(b1-3)GalNAc
In short: as §1

[29] = target: GlcNAc(b1-3)Gal(b1-4)Glc
In short: as §1

[30] = target: GlcNAc(b1-3)Gal(b1-4)GlcNAc
In short: as §1

[31] = target: GlcNAc(b1-3)Gal(b1-4)GlcNAc(b1-2)Man(a1-3)[GlcNAc(b1-3)Gal(b1-4)GlcNAc(b1-2)Man(a1-6)]Man(b1-4)GlcNAc(b1-4)GlcNAc
In short: as §1

[32] = target: GlcNAc(b1-3)Gal(b1-4)GlcNAc(b1-2)Man(a1-3)[GlcNAc(b1-3)Gal(b1-4)GlcNAc(b1-2)Man(a1-6)]Man(b1-4)GlcNAc(b1-4)[Fuc(a1-6)]GlcNAc
In short: as §1

[33] = target: GlcNAc(b1-3)Gal(b1-4)GlcNAc(b1-2)[GlcNAc(b1-3)Gal(b1-4)GlcNAc(b1-6)]Man(a1-6)[GlcNAc(b1-3)Gal(b1-4)GlcNAc(b1-2)Man(a1-3)]Man(b1-4)GlcNAc(b1-4)GlcNAc
In short: as §1

[34] = target: GlcNAc(b1-3)Gal(b1-4)GlcNAc(b1-3)Gal(b1-4)GlcNAc
In short: as §1

[35] = target: GlcNAc(b1-3)Gal(b1-4)GlcNAc(b1-3)Gal(b1-4)GlcNAc(b1-2)Man(a1-3)[GlcNAc(b1-3)Gal(b1-4)GlcNAc(b1-3)Gal(b1-4)GlcNAc(b1-2)Man(a1-6)]Man(b1-4)GlcNAc(b1-4)GlcNAc
In short: as §1

[36] = target: GlcNAc(b1-3)Gal(b1-4)GlcNAc(b1-3)Gal(b1-4)GlcNAc(b1-2)Man(a1-3)[GlcNAc(b1-3)Gal(b1-4)GlcNAc(b1-3)Gal(b1-4)GlcNAc(b1-2)Man(a1-6)]Man(b1-4)GlcNAc(b1-4)[Fuc(a1-6)]GlcNAc
In short: as §1

[37] = target: GlcNAc(b1-3)Gal(b1-4)GlcNAc(b1-3)Gal(b1-4)GlcNAc(b1-2)[GlcNAc(b1-3)Gal(b1-4)GlcNAc(b1-3)Gal(b1-4)GlcNAc(b1-6)]Man(a1-6)[GlcNAc(b1-3)Gal(b1-4)GlcNAc(b1-3)Gal(b1-4)GlcNAc(b1-2)Man(a1-3)]Man(b1-4)GlcNAc(b1-4)[Fuc(a1-6)]GlcNAc
In short: as §1

B1: Gal 4 (Mus musculus), P56470 (protein)
chain: MAYVPAPGYQPTYNPTLPYYQPIPGGLNVGMSVYIQGVASEHMKRFFVNFVVGQDPGSDVAFHFNPRFDGWDKVVFNTLQGGKWGSEERKRSMPFKKGAAFELVFIVLAEHYKVVVNGNPFYEYGHRLPLQMVTHLQVDGDLQLQSINFIGGQPLRPQGPPMMPPYPGPGHCHQQLNSLPTMEGPPTFNPPVPYFGRLQGGLTARRTIIIKGYVPPTGKSFAINFKVGSSGDIALHINPRMGNGTVVRNSLLNGSWGSEEKKITHNPFGPGQFFDLSIRCGLDRFKVYANGQHLFDFAHRLSAFQRVDTLEIQGDVTLSYVQI
[1]
  glycan array binding signal (z-score): -0.236
[2]
  glycan array binding signal (z-score): -0.336
[3]
  glycan array binding signal (z-score): -0.228
[4]
  glycan array binding signal (z-score): -0.2
[5]
  glycan array binding signal (z-score): -0.237
[6]
  glycan array binding signal (z-score): -0.219
[7]
  glycan array binding signal (z-score): -0.233
[8]
  glycan array binding signal (z-score): 0.38
[9]
  glycan array binding signal (z-score): -0.209
[10]
  glycan array binding signal (z-score): -0.114
[11]
  glycan array binding signal (z-score): -0.176
[12]
  glycan array binding signal (z-score): -0.239
[13]
  glycan array binding signal (z-score): -0.226
[14]
  glycan array binding signal (z-score): -0.24
[15]
  glycan array binding signal (z-score): -0.19
[16]
  glycan array binding signal (z-score): -0.225
[17]
  glycan array binding signal (z-score): -0.278
[18]
  glycan array binding signal (z-score): -0.244
[19]
  glycan array binding signal (z-score): -0.234
[20]
  glycan array binding signal (z-score): -0.23
[21]
  glycan array binding signal (z-score): -0.264
[22]
  glycan array binding signal (z-score): -0.221
[23]
  glycan array binding signal (z-score): -0.25
[24]
  glycan array binding signal (z-score): -0.203
[25]
  glycan array binding signal (z-score): -0.265
[26]
  glycan array binding signal (z-score): -0.261
[27]
  glycan array binding signal (z-score): -0.236
[28]
  glycan array binding signal (z-score): -0.227
[29]
  glycan array binding signal (z-score): 0.019
[30]
  glycan array binding signal (z-score): -0.204
[31]
  glycan array binding signal (z-score): -0.254
[32]
  glycan array binding signal (z-score): -0.253
[33]
  glycan array binding signal (z-score): -0.169
[34]
  glycan array binding signal (z-score): -0.174
[35]
  glycan array binding signal (z-score): -0.18
[36]
  glycan array binding signal (z-score): -0.19
[37]
  glycan array binding signal (z-score): -0.279
